# In the supplement of paper PMC8728848:
# The list shows a part of the results.
# B1: PX9937F-bfa-516-16-516 (Bacteroides fragilis) (protein)
# chain: LDIDPTSSIADSNYWKTEAQFSTFNVGLHALLRECSFNFFLLGEPRADIYGDVPFGGEATQGMERLPFNTINKENTGISNFAGMYKVINQINLMIAKTKETTVLSEAGKNYYLGEAYGMRAYLYFHLLRSWGDVILYLDYTNGASLDLSNLSKAASPAEEVMKQIKEDITASEKGFGSDYSFKYGRYYWSMAATQMLKGEVYLWSGRQMGGGTADYTTAKTALQSIVSNANVSLQDDFSKVFAYNNKDNSEIIFSIRNAKDEYNMWDDRFRQNLVPQQAYMTSTYCNKEGVSFKDLPEGQLNGLIRLQIRYDLYNKAFRDGDTRKDASMTAVYQKQQDGTVKYIAPFCNKYQGVLLDGASQRSFLNDYPIYRYADCLLLLAEAKALLGEDPTAEINQVRERAYGKEFFEANKATLAYPNDKGDFYTDNKYMSGDEDPLEAILKERMREFMFEGKRWYDLRLLGADYVTKRTSAVATRLLWPINESVLTDNPALKQTPGYQN
# What was measured:
# Assay in all cases: glycan array binding signal (z-score within array); higher = stronger binding
# Settings in all cases: glycan notation: IUPAC condensed, linker removed
# [1] = biological target: GlcNAc(b1-4)GlcNAc(b1-4)GlcNAc(b1-4)GlcNAc(b1-4)GlcNAc(b1-4)GlcNAc
# In short: (§1)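 The binding signal is a Z-score computed within each array and averaged over linkers. Arrays of the same protein sequence at different concentrations or buffers were also averaged together. Data originate from 3228 arrays in the Consortium for Functional Glycomics database, kept only where the protein sequence was available.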
# [2] = biological target: GlcNAc(b1-4)[GlcNAc(b1-6)]GalNAc
# In short: as §1
# [3] = biological target: GlcNAc(b1-6)Gal(b1-4)GlcNAc
# In short: as §1
# GlcNAc(b1-6)GalNAc = biological target: GlcNAc(b1-6)GalNAc
# In short: as §1
# [4] = biological target: GlcNAc6S(b1-3)Gal(b1-4)GlcNAc
# In short: as §1
# Kdn(a2-3)Gal(b1-3)GalNAc = biological target: Kdn(a2-3)Gal(b1-3)GalNAc
# In short: as §1
# Kdn(a2-3)Gal(b1-3)GlcNAc = biological target: Kdn(a2-3)Gal(b1-3)GlcNAc
# In short: as §1
# Kdn(a2-3)Gal(b1-4)Glc = biological target: Kdn(a2-3)Gal(b1-4)Glc
# In short: as §1
# Kdn(a2-3)Gal(b1-4)GlcNAc = biological target: Kdn(a2-3)Gal(b1-4)GlcNAc
# In short: as §1
# [5] = biological target: Kdn(a2-3)Gal(b1-4)[Fuc(a1-3)]GlcNAc
# In short: as §1
# Kdn(a2-6)Gal(b1-4)GlcNAc = biological target: Kdn(a2-6)Gal(b1-4)GlcNAc
# In short: as §1
# [6] = biological target: Man(a1-2)Man(a1-2)Man(a1-3)Man
# In short: as §1
# [7] = biological target: Man(a1-2)Man(a1-2)Man(a1-6)[Man(a1-3)]Man
# In short: as §1
# Man(a1-2)Man(a1-3)Man = biological target: Man(a1-2)Man(a1-3)Man
# In short: as §1
# [8] = biological target: Man(a1-2)Man(a1-3)[Man(a1-2)Man(a1-6)]Man
# In short: as §1
# [9] = biological target: Man(a1-2)Man(a1-3)[Man(a1-2)Man(a1-6)]Man(a1-6)[Man(a1-2)Man(a1-2)Man(a1-3)]Man
# In short: as §1
# [10] = biological target: Man(a1-2)Man(a1-3)[Man(a1-2)Man(a1-6)]Man(a1-6)[Man(a1-2)Man(a1-2)Man(a1-3)]Man(b1-4)GlcNAc(b1-4)GlcNAc
# In short: as §1
# [11] = biological target: Man(a1-2)Man(a1-3)[Man(a1-6)]Man(a1-6)[Man(a1-2)Man(a1-3)]Man(b1-4)GlcNAc(b1-4)GlcNAc
# In short: as §1
# [12] = biological target: Man(a1-2)Man(a1-6)[Man(a1-3)]Man(a1-6)[Man(a1-2)Man(a1-2)Man(a1-3)]Man
# In short: as §1
# [13] = biological target: Man(a1-2)Man(a1-6)[Man(a1-3)]Man(a1-6)[Man(a1-2)Man(a1-2)Man(a1-3)]Man(b1-4)GlcNAc(b1-4)GlcNAc
# In short: as §1
# Man(a1-3)[Man(a1-6)]Man = biological target: Man(a1-3)[Man(a1-6)]Man
# In short: as §1
# [14] = biological target: Man(a1-3)[Man(a1-6)]Man(a1-6)[Man(a1-2)Man(a1-3)]Man(b1-4)GlcNAc(b1-4)GlcNAc
# In short: as §1
# [15] = biological target: Man(a1-3)[Man(a1-6)]Man(a1-6)[Man(a1-3)]Man
# In short: as §1
# [16] = biological target: Man(a1-3)[Man(a1-6)]Man(a1-6)[Man(a1-3)]Man(b1-4)GlcNAc(b1-4)GlcNAc
# In short: as §1
# [17] = biological target: Man(a1-3)[Man(a1-6)]Man(b1-4)GlcNAc(b1-4)GlcNAc
# In short: as §1
# [18] = biological target: Man(a1-3)[Man(a1-6)]Man(b1-4)GlcNAc(b1-4)[Fuc(a1-6)]GlcNAc
# In short: as §1
# Man(a1-6)Man = biological target: Man(a1-6)Man
# In short: as §1
# Man(b1-4)GlcNAc = biological target: Man(b1-4)GlcNAc
# In short: as §1
# MurNAc(b1-4)GlcNAc = biological target: MurNAc(b1-4)GlcNAc
# In short: as §1
# Neu5Ac(a2-3)Gal = biological target: Neu5Ac(a2-3)Gal
# In short: as §1
# [19] = biological target: Neu5Ac(a2-3)Gal(b1-3)GalNAc
# In short: as §1
# [20] = biological target: Neu5Ac(a2-3)Gal(b1-3)GalNAc(b1-3)Gal(a1-4)Gal(b1-4)Glc
# In short: as §1
# [21] = biological target: Neu5Ac(a2-3)Gal(b1-3)GalNAc(b1-4)[Neu5Ac(a2-3)]Gal(b1-4)Glc
# In short: as §1
# [22] = biological target: Neu5Ac(a2-3)Gal(b1-3)GalNAc(b1-4)[Neu5Ac(a2-8)Neu5Ac(a2-3)]Gal(b1-4)Glc
# In short: as §1
# [23] = biological target: Neu5Ac(a2-3)Gal(b1-3)GalNAc6S
# In short: as §1
# [24] = biological target: Neu5Ac(a2-3)Gal(b1-3)GlcNAc
# In short: as §1
# [25] = biological target: Neu5Ac(a2-3)Gal(b1-3)GlcNAc(b1-2)Man
# In short: as §1
binder,measurement,setting,value
B1,glycan array binding signal (z-score),[1],-0.318
same,glycan array binding signal (z-score),[2],-0.127
same,glycan array binding signal (z-score),[3],-0.106
same,glycan array binding signal (z-score),GlcNAc(b1-6)GalNAc,-0.129
same,glycan array binding signal (z-score),[4],-0.002
same,glycan array binding signal (z-score),Kdn(a2-3)Gal(b1-3)GalNAc,-0.345
same,glycan array binding signal (z-score),Kdn(a2-3)Gal(b1-3)GlcNAc,-0.309
same,glycan array binding signal (z-score),Kdn(a2-3)Gal(b1-4)Glc,-0.137
same,glycan array binding signal (z-score),Kdn(a2-3)Gal(b1-4)GlcNAc,-0.269
same,glycan array binding signal (z-score),[5],0.281
same,glycan array binding signal (z-score),Kdn(a2-6)Gal(b1-4)GlcNAc,-0.215
same,glycan array binding signal (z-score),[6],-0.273
same,glycan array binding signal (z-score),[7],-0.284
same,glycan array binding signal (z-score),Man(a1-2)Man(a1-3)Man,-0.031
same,glycan array binding signal (z-score),[8],-0.294
same,glycan array binding signal (z-score),[9],-0.328
same,glycan array binding signal (z-score),[10],0.025
same,glycan array binding signal (z-score),[11],-0.046
same,glycan array binding signal (z-score),[12],-0.156
same,glycan array binding signal (z-score),[13],-0.162
same,glycan array binding signal (z-score),Man(a1-3)[Man(a1-6)]Man,-0.14
same,glycan array binding signal (z-score),[14],-0.197
same,glycan array binding signal (z-score),[15],0.315
same,glycan array binding signal (z-score),[16],0.247
same,glycan array binding signal (z-score),[17],-0.19
same,glycan array binding signal (z-score),[18],-0.38
same,glycan array binding signal (z-score),Man(a1-6)Man,-0.038
same,glycan array binding signal (z-score),Man(b1-4)GlcNAc,-0.197
same,glycan array binding signal (z-score),MurNAc(b1-4)GlcNAc,-0.278
same,glycan array binding signal (z-score),Neu5Ac(a2-3)Gal,-0.347
same,glycan array binding signal (z-score),[19],-0.269
same,glycan array binding signal (z-score),[20],-0.351
same,glycan array binding signal (z-score),[21],-0.047
same,glycan array binding signal (z-score),[22],-0.117
same,glycan array binding signal (z-score),[23],-0.104
same,glycan array binding signal (z-score),[24],-0.281
same,glycan array binding signal (z-score),[25],0.046
